In patent US12508261B2, “Methods of treating depression with vortioxetine” (Rundle Research LLC, priority 2017, dated 2025):
This continues a long series; more values of the same kind are listed elsewhere.

Key:
[1] = Regression model estimating vortioxetine half-life and MAOI delay from total body fat and steady-state plasma concentration (CYP2D6 metabolizer status); design: species or system human
Text: Data obtained in the study described in Example 1 and Table 1 provided the basis for a regression model (having a r^2 value of 88%) based on total body fat and steady-state vortioxetine plasma concentration. Because the steady-state plasma concentration of vortioxetine correlates with metabolizer status, this regression provides a means of estimating vortioxetine half-life for patients based on total body fat and CYP2D6 metabolizer status.
Alternatively, the delay period can be calculated based on any particular values in Table 1, or any statistical parameter for characterizing the subject population of Table, such as the arithmetic mean, geometric mean, maximum, minimum, maximum or minimum 90% confidence interval, etc. of the half-life (e.g., 7.5×the average t1/2, 7.5×the maximum t1/2, and so forth, or the 21 day equivalency to a normal weight extensive metabolizer subject, based on the average t1/2 or the maximum t1/2 or any of the aforementioned statistically parameters).

[2] = all subjects incl. intermediate and poor CYP2D6 metabolizers; Areberg et al.; cited from earlier work
[3] = Extensive(a) average of obese steady-state concentration for extensive metabolizers, total fat 60 kg
[4] = Extensive(a) average of obese steady-state concentration for extensive metabolizers, total fat 70 kg
[5] = Extensive(a) average of obese steady-state concentration for extensive metabolizers, total fat 80 kg
[6] = Extensive(a) average of obese steady-state concentration for extensive metabolizers, total fat 90 kg
[7] = Extensive(a) average of obese steady-state concentration for extensive metabolizers, total fat 100 kg
[8] = Extensive(b) high of extensive metabolizers, total fat 40 kg
[9] = Extensive(b) high of extensive metabolizers, total fat 50 kg
[10] = Extensive(b) high of extensive metabolizers, total fat 60 kg
[11] = Extensive(b) high of extensive metabolizers, total fat 70 kg
[12] = Extensive(b) high of extensive metabolizers, total fat 80 kg
[13] = Extensive(b) high of extensive metabolizers, total fat 90 kg
[14] = Extensive(b) high of extensive metabolizers, total fat 100 kg
[15] = IM(c) average of intermediate metabolizer values, total fat 10 kg
[16] = IM(c) average of intermediate metabolizer values, total fat 20 kg
[17] = IM(c) average of intermediate metabolizer values, total fat 30 kg
[18] = IM(c) average of intermediate metabolizer values, total fat 40 kg
[19] = IM(c) average of intermediate metabolizer values, total fat 50 kg
[20] = IM(c) average of intermediate metabolizer values, total fat 60 kg
[21] = IM(c) average of intermediate metabolizer values, total fat 70 kg
[22] = IM(c) average of intermediate metabolizer values, total fat 80 kg
[23] = IM(c) average of intermediate metabolizer values, total fat 90 kg
[24] = IM(c) average of intermediate metabolizer values, total fat 100 kg
[25] = IM(d) high of IM values, total fat 70 kg
[26] = IM(d) high of IM values, total fat 80 kg
[27] = PM(e) estimated poor metabolizer values, total fat 10 kg
[28] = PM(e) estimated poor metabolizer values, total fat 20 kg
[29] = PM(e) estimated poor metabolizer values, total fat 30 kg
[30] = PM(e) estimated poor metabolizer values, total fat 40 kg
[31] = PM(e) estimated poor metabolizer values, total fat 50 kg
[32] = PM(e) estimated poor metabolizer values, total fat 60 kg
[33] = PM(e) estimated poor metabolizer values, total fat 70 kg
[34] = PM(e) estimated poor metabolizer values, total fat 80 kg
[35] = PM(e) estimated poor metabolizer values, total fat 90 kg
[36] = PM(e) estimated poor metabolizer values, total fat 100 kg

Weeks of Delay (21 day equivalency to Normal, 54 hr half-life) ([1]; Extensive(a) average of obese steady-state concentration for extensive metabolizers, total fat 50 kg): 3.5 Weeks
Weeks of Delay (21 day equivalency to Normal, 54 hr half-life) [1, 3]: 4.1 Weeks
Weeks of Delay (21 day equivalency to Normal, 66 hr half-life) [1, 3]: 3.3 Weeks
Weeks of Delay (21 day equivalency to Normal, 54 hr half-life) [1, 4]: 4.6 Weeks
Weeks of Delay (21 day equivalency to Normal, 66 hr half-life) [1, 4]: 3.8 Weeks
Weeks of Delay (21 day equivalency to Normal, 54 hr half-life) [1, 5]: 5.2 Weeks
Weeks of Delay (21 day equivalency to Normal, 66 hr half-life) [1, 5]: 4.2 Weeks
Weeks of Delay (21 day equivalency to Normal, 54 hr half-life) [1, 6]: 5.8 Weeks
Weeks of Delay (21 day equivalency to Normal, 66 hr half-life) [1, 6]: 4.7 Weeks
Weeks of Delay (21 day equivalency to Normal, 54 hr half-life) [1, 7]: 6.4 Weeks
Weeks of Delay (21 day equivalency to Normal, 66 hr half-life) [1, 7]: 5.2 Weeks
Weeks of Delay (21 day equivalency to Normal, 54 hr half-life) ([1]; Extensive(b) high of extensive metabolizers, total fat 30 kg): 3.3 Weeks
Weeks of Delay (21 day equivalency to Normal, 54 hr half-life) [1, 8]: 3.9 Weeks
Weeks of Delay (21 day equivalency to Normal, 66 hr half-life) [1, 8]: 3.2 Weeks
Weeks of Delay (21 day equivalency to Normal, 54 hr half-life) [1, 9]: 4.5 Weeks
Weeks of Delay (21 day equivalency to Normal, 66 hr half-life) [1, 9]: 3.6 Weeks
Weeks of Delay (21 day equivalency to Normal, 54 hr half-life) [1, 10]: 5.0 Weeks
Weeks of Delay (21 day equivalency to Normal, 66 hr half-life) [1, 10]: 4.1 Weeks
Weeks of Delay (21 day equivalency to Normal, 54 hr half-life) [1, 11]: 5.6 Weeks
Weeks of Delay (21 day equivalency to Normal, 66 hr half-life) [1, 11]: 4.6 Weeks
Weeks of Delay (21 day equivalency to Normal, 54 hr half-life) [1, 12]: 6.2 Weeks
Weeks of Delay (21 day equivalency to Normal, 66 hr half-life) [1, 12]: 5.0 Weeks
Weeks of Delay (21 day equivalency to Normal, 54 hr half-life) [1, 13]: 6.7 Weeks
Weeks of Delay (21 day equivalency to Normal, 66 hr half-life) [1, 13]: 5.5 Weeks
Weeks of Delay (21 day equivalency to Normal, 54 hr half-life) [1, 14]: 7.3 Weeks
Weeks of Delay (21 day equivalency to Normal, 66 hr half-life) [1, 14]: 6.0 Weeks
Weeks of Delay (21 day equivalency to Normal, 54 hr half-life) [1, 15]: 5.7 Weeks
Weeks of Delay (21 day equivalency to Normal, 66 hr half-life) [1, 15]: 4.6 Weeks
Weeks of Delay (21 day equivalency to Normal, 54 hr half-life) [1, 16]: 6.3 Weeks
Weeks of Delay (21 day equivalency to Normal, 66 hr half-life) [1, 16]: 5.1 Weeks
Weeks of Delay (21 day equivalency to Normal, 54 hr half-life) [1, 17]: 6.8 Weeks
Weeks of Delay (21 day equivalency to Normal, 66 hr half-life) [1, 17]: 5.6 Weeks
Weeks of Delay (21 day equivalency to Normal, 54 hr half-life) [1, 18]: 7.4 Weeks
Weeks of Delay (21 day equivalency to Normal, 66 hr half-life) [1, 18]: 6.0 Weeks
Weeks of Delay (21 day equivalency to Normal, 54 hr half-life) [1, 19]: 8.0 Weeks
Weeks of Delay (21 day equivalency to Normal, 66 hr half-life) [1, 19]: 6.5 Weeks
Weeks of Delay (21 day equivalency to Normal, 54 hr half-life) [1, 20]: 8.6 Weeks
Weeks of Delay (21 day equivalency to Normal, 66 hr half-life) [1, 20]: 7.0 Weeks
Weeks of Delay (21 day equivalency to Normal, 54 hr half-life) [1, 21]: 9.1 Weeks
Weeks of Delay (21 day equivalency to Normal, 66 hr half-life) [1, 21]: 7.4 Weeks
Weeks of Delay (21 day equivalency to Normal, 54 hr half-life) [1, 22]: 9.7 Weeks
Weeks of Delay (21 day equivalency to Normal, 66 hr half-life) [1, 22]: 7.9 Weeks
Weeks of Delay (21 day equivalency to Normal, 54 hr half-life) [1, 23]: 10.3 Weeks
Weeks of Delay (21 day equivalency to Normal, 66 hr half-life) [1, 23]: 8.4 Weeks
Weeks of Delay (21 day equivalency to Normal, 54 hr half-life) [1, 24]: 10.8 Weeks
Weeks of Delay (21 day equivalency to Normal, 66 hr half-life) [1, 24]: 8.8 Weeks
Weeks of Delay (21 day equivalency to Normal, 54 hr half-life) ([1]; IM(d) high of IM values, total fat 10 kg): 6.5 Weeks
Weeks of Delay (21 day equivalency to Normal, 54 hr half-life) ([1]; IM(d) high of IM values, total fat 20 kg): 7.0 Weeks
Weeks of Delay (21 day equivalency to Normal, 54 hr half-life) ([1]; IM(d) high of IM values, total fat 30 kg): 7.6 Weeks
Weeks of Delay (21 day equivalency to Normal, 54 hr half-life) ([1]; IM(d) high of IM values, total fat 40 kg): 8.2 Weeks
Weeks of Delay (21 day equivalency to Normal, 54 hr half-life) ([1]; IM(d) high of IM values, total fat 50 kg): 8.8 Weeks
Weeks of Delay (21 day equivalency to Normal, 54 hr half-life) ([1]; IM(d) high of IM values, total fat 60 kg): 9.3 Weeks
Weeks of Delay (21 day equivalency to Normal, 54 hr half-life) [1, 25]: 9.9 Weeks
Weeks of Delay (21 day equivalency to Normal, 66 hr half-life) [1, 25]: 8.1 Weeks
Weeks of Delay (21 day equivalency to Normal, 54 hr half-life) [1, 26]: 10.5 Weeks
Weeks of Delay (21 day equivalency to Normal, 66 hr half-life) [1, 26]: 8.5 Weeks
Weeks of Delay (21 day equivalency to Normal, 54 hr half-life) ([1]; IM(d) high of IM values, total fat 90 kg): 11.0 Weeks
Weeks of Delay (21 day equivalency to Normal, 54 hr half-life) ([1]; IM(d) high of IM values, total fat 100 kg): 11.6 Weeks
Weeks of Delay (21 day equivalency to Normal, 54 hr half-life) [1, 27]: 12.0 Weeks
Weeks of Delay (21 day equivalency to Normal, 66 hr half-life) [1, 27]: 9.8 Weeks
Weeks of Delay (21 day equivalency to Normal, 54 hr half-life) [1, 28]: 12.6 Weeks
Weeks of Delay (21 day equivalency to Normal, 66 hr half-life) [1, 28]: 10.2 Weeks
Weeks of Delay (21 day equivalency to Normal, 54 hr half-life) [1, 29]: 13.1 Weeks
Weeks of Delay (21 day equivalency to Normal, 66 hr half-life) [1, 29]: 10.7 Weeks
Weeks of Delay (21 day equivalency to Normal, 54 hr half-life) [1, 30]: 13.7 Weeks
Weeks of Delay (21 day equivalency to Normal, 66 hr half-life) [1, 30]: 11.2 Weeks
Weeks of Delay (21 day equivalency to Normal, 54 hr half-life) [1, 31]: 14.3 Weeks
Weeks of Delay (21 day equivalency to Normal, 66 hr half-life) [1, 31]: 11.6 Weeks
Weeks of Delay (21 day equivalency to Normal, 54 hr half-life) [1, 32]: 14.8 Weeks
Weeks of Delay (21 day equivalency to Normal, 66 hr half-life) [1, 32]: 12.1 Weeks
Weeks of Delay (21 day equivalency to Normal, 54 hr half-life) [1, 33]: 15.4 Weeks
Weeks of Delay (21 day equivalency to Normal, 66 hr half-life) [1, 33]: 12.5 Weeks
Weeks of Delay (21 day equivalency to Normal, 54 hr half-life) [1, 34]: 16.0 Weeks
Weeks of Delay (21 day equivalency to Normal, 66 hr half-life) [1, 34]: 13.0 Weeks
Weeks of Delay (21 day equivalency to Normal, 54 hr half-life) [1, 35]: 16.6 Weeks
Weeks of Delay (21 day equivalency to Normal, 66 hr half-life) [1, 35]: 13.5 Weeks
Weeks of Delay (21 day equivalency to Normal, 54 hr half-life) [1, 36]: 17.1 Weeks
Weeks of Delay (21 day equivalency to Normal, 66 hr half-life) [1, 36]: 13.9 Weeks
Structure (SMILES): Cc1ccc(Sc2ccccc2N2CCNCC2)c(C)c1 [vortioxetine]
mean elimination half-life [2]: 65.8 h
